Assay results published in the supplement of paper PMC8728848.
This is one part of the list.

Tests used:
Assay in all cases: glycan array binding signal (z-score within array); higher = stronger binding
Details in all cases: glycan notation: IUPAC condensed, linker removed
[1] = target: Gal(b1-3)GalNAc(b1-3)Gal(a1-4)Gal(b1-4)Glc
How it was run: (§1)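 The binding signal is a Z-score computed within each array and averaged over linkers. Arrays of the same protein sequence at different concentrations or buffers were also averaged together. Data originate from 3228 arrays in the Consortium for Functional Glycomics database, kept only where the protein sequence was available.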

[2] = target: Gal(b1-3)GalNAc(b1-4)Gal(b1-4)Glc
How it was run: as §1

[3] = target: Gal(b1-3)GalNAc(b1-4)[Neu5Ac(a2-3)]Gal(b1-4)Glc
How it was run: as §1

[4] = target: Gal(b1-3)GlcNAc
How it was run: as §1

[5] = target: Gal(b1-3)GlcNAc(a1-3)Gal(b1-4)GlcNAc
How it was run: as §1

[6] = target: Gal(b1-3)GlcNAc(a1-6)Gal(b1-4)GlcNAc
How it was run: as §1

[7] = target: Gal(b1-3)GlcNAc(b1-2)Man
How it was run: as §1

[8] = target: Gal(b1-3)GlcNAc(b1-2)Man(a1-3)[Gal(b1-3)GlcNAc(b1-2)Man(a1-6)]Man(b1-4)GlcNAc(b1-4)GlcNAc
How it was run: as §1

[9] = target: Gal(b1-3)GlcNAc(b1-2)Man(a1-3)[Gal(b1-3)GlcNAc(b1-2)Man(a1-6)]Man(b1-4)GlcNAc(b1-4)[Fuc(a1-6)]GlcNAc
How it was run: as §1

[10] = target: Gal(b1-3)GlcNAc(b1-2)Man(a1-3)[GlcNAc(b1-4)][Gal(b1-3)GlcNAc(b1-2)Man(a1-6)]Man(b1-4)GlcNAc(b1-4)GlcNAc
How it was run: as §1

[11] = target: Gal(b1-3)GlcNAc(b1-2)[Gal(b1-3)GlcNAc(b1-6)]Man(a1-6)[Gal(b1-3)GlcNAc(b1-2)Man(a1-3)]Man(b1-4)GlcNAc(b1-4)GlcNAc
How it was run: as §1

[12] = target: Gal(b1-3)GlcNAc(b1-3)Gal(b1-3)GlcNAc
How it was run: as §1

[13] = target: Gal(b1-3)GlcNAc(b1-3)Gal(b1-4)Glc
How it was run: as §1

[14] = target: Gal(b1-3)GlcNAc(b1-3)Gal(b1-4)GlcNAc
How it was run: as §1

[15] = target: Gal(b1-3)GlcNAc(b1-3)Gal(b1-4)GlcNAc(b1-2)Man(a1-3)[Gal(b1-3)GlcNAc(b1-3)Gal(b1-4)GlcNAc(b1-2)Man(a1-6)]Man(b1-4)GlcNAc(b1-4)GlcNAc
How it was run: as §1

[16] = target: Gal(b1-3)GlcNAc(b1-3)Gal(b1-4)GlcNAc(b1-2)[Gal(b1-3)GlcNAc(b1-3)Gal(b1-4)GlcNAc(b1-6)]Man(a1-6)[Gal(b1-3)GlcNAc(b1-3)Gal(b1-4)GlcNAc(b1-2)Man(a1-3)]Man(b1-4)GlcNAc(b1-4)[Fuc(a1-6)]GlcNAc
How it was run: as §1

[17] = target: Gal(b1-3)GlcNAc(b1-3)Gal(b1-4)GlcNAc(b1-3)Gal(b1-4)GlcNAc(b1-2)[Gal(b1-3)GlcNAc(b1-3)Gal(b1-4)GlcNAc(b1-3)Gal(b1-4)GlcNAc(b1-6)]Man(a1-6)[Gal(b1-3)GlcNAc(b1-3)Gal(b1-4)GlcNAc(b1-3)Gal(b1-4)GlcNAc(b1-2)Man(a1-3)]Man(b1-4)GlcNAc(b1-4)[Fuc(a1-6)]GlcNAc
How it was run: as §1

[18] = target: Gal(b1-3)GlcNAc(b1-3)Gal(b1-4)GlcNAc(b1-6)[Gal(b1-3)GlcNAc(b1-3)]Gal(b1-4)Glc
How it was run: as §1

[19] = target: Gal(b1-3)GlcNAc(b1-3)Gal(b1-4)[Fuc(a1-3)]GlcNAc
How it was run: as §1

[20] = target: Gal(b1-3)GlcNAc(b1-3)Gal(b1-4)[Fuc(a1-3)]GlcNAc(b1-6)[Gal(b1-3)GlcNAc(b1-3)]Gal(b1-4)Glc
How it was run: as §1

[21] = target: Gal(b1-3)GlcNAc(b1-3)GalNAc
How it was run: as §1

[22] = target: Gal(b1-3)GlcNAc(b1-6)Gal(b1-4)GlcNAc
How it was run: as §1

[23] = target: Gal(b1-3)GlcNAc(b1-6)GalNAc
How it was run: as §1

[24] = target: Gal(b1-3)GlcNAc(b1-6)[Gal(b1-3)]GalNAc
How it was run: as §1

[25] = target: Gal(b1-3)GlcNAc6S
How it was run: as §1

[26] = target: Gal(b1-3)[Fuc(a1-4)]GlcNAc
How it was run: as §1

[27] = target: Gal(b1-3)[Fuc(a1-4)]GlcNAc(b1-2)Man
How it was run: as §1

[28] = target: Gal(b1-3)[Fuc(a1-4)]GlcNAc(b1-2)Man(a1-3)[Gal(b1-3)[Fuc(a1-4)]GlcNAc(b1-2)Man(a1-6)]Man(b1-4)GlcNAc(b1-4)[Fuc(a1-6)]GlcNAc
How it was run: as §1

[29] = target: Gal(b1-3)[Fuc(a1-4)]GlcNAc(b1-3)Gal(b1-3)[Fuc(a1-4)]GlcNAc
How it was run: as §1

[30] = target: Gal(b1-3)[Fuc(a1-4)]GlcNAc(b1-3)Gal(b1-4)[Fuc(a1-3)]GlcNAc
How it was run: as §1

[31] = target: Gal(b1-3)[Fuc(a1-4)]GlcNAc(b1-6)GalNAc
How it was run: as §1

[32] = target: Gal(b1-3)[GlcNAc(b1-6)]GalNAc
How it was run: as §1

[33] = target: Gal(b1-3)[Neu5Ac(a2-6)]GalNAc
How it was run: as §1

[34] = target: Gal(b1-3)[Neu5Ac(a2-6)]GlcNAc(b1-4)Gal(b1-4)Glc
How it was run: as §1

[35] = target: Gal(b1-3)[Neu5Ac(b2-6)]GalNAc
How it was run: as §1

[36] = target: Gal(b1-4)Gal
How it was run: as §1

[37] = target: Gal(b1-4)GalNAc(a1-3)[Fuc(a1-2)]Gal(b1-4)GlcNAc
How it was run: as §1

[38] = target: Gal(b1-4)GalNAc(b1-3)[Fuc(a1-2)]Gal(b1-4)GlcNAc
How it was run: as §1

B1: B725 (Bifidobacterium sp) (protein)
chain: MNNTTRAVIATAAIGALLIPLAGCGNTTTSSGKTELTVWSWDASIDRAAKSFMKANPDITVKVSNVGSTEETYTALNNAAQAGSGLPDVTLIEYLAIPQFVHSDTLMDLSKVYNTAKLKDTFTPGTWNSVNINGGLYAMPADSGPMAYFYDKDVFDKAGISEPPTTWDEFYEDAKKIRATGSYITSDSGDAGLFNAMMWAMGGHAYKLNDDKLTINIAKDKGAQRFMDLWQKMRDEDLIDVHTKTWTDDWMKSLGDGSIASLISGAWMANNLLQGVPQATGKFRVALLPTIDGTPINGEYGGSGLAITKKIPDGKLDAAKKFVEYVTTNDEGIDARVSNGSFPATTKTLNQKDFLAKTTLRNTDGSDNEFFGGQKYNEIFSQAAKDVTGKWEFLPFEPYARSVYNDNMGSFFAGKTSFRTAADNWQKALKDYAKDQGFTVQ
- glycan array binding signal (z-score) [1]: -0.21
- glycan array binding signal (z-score) [2]: -0.184
- glycan array binding signal (z-score) [3]: -0.223
- glycan array binding signal (z-score) [4]: -0.1
- glycan array binding signal (z-score) [5]: -0.23
- glycan array binding signal (z-score) [6]: -0.21
- glycan array binding signal (z-score) [7]: -0.188
- glycan array binding signal (z-score) [8]: -0.209
- glycan array binding signal (z-score) [9]: -0.217
- glycan array binding signal (z-score) [10]: -0.191
- glycan array binding signal (z-score) [11]: -0.195
- glycan array binding signal (z-score) [12]: -0.194
- glycan array binding signal (z-score) [13]: 0.425
- glycan array binding signal (z-score) [14]: 0.105
- glycan array binding signal (z-score) [15]: 0.041
- glycan array binding signal (z-score) [16]: -0.086
- glycan array binding signal (z-score) [17]: -0.096
- glycan array binding signal (z-score) [18]: 0.204
- glycan array binding signal (z-score) [19]: -0.224
- glycan array binding signal (z-score) [20]: -0.144
- glycan array binding signal (z-score) [21]: -0.209
- glycan array binding signal (z-score) [22]: -0.18
- glycan array binding signal (z-score) [23]: -0.199
- glycan array binding signal (z-score) [24]: -0.2
- glycan array binding signal (z-score) [25]: -0.136
- glycan array binding signal (z-score) [26]: -0.219
- glycan array binding signal (z-score) [27]: -0.205
- glycan array binding signal (z-score) [28]: -0.139
- glycan array binding signal (z-score) [29]: -0.225
- glycan array binding signal (z-score) [30]: -0.203
- glycan array binding signal (z-score) [31]: -0.187
- glycan array binding signal (z-score) [32]: -0.224
- glycan array binding signal (z-score) [33]: -0.228
- glycan array binding signal (z-score) [34]: 0.006
- glycan array binding signal (z-score) [35]: -0.229
- glycan array binding signal (z-score) [36]: -0.215
- glycan array binding signal (z-score) [37]: -0.218
- glycan array binding signal (z-score) [38]: -0.221
